# According to the supplement of paper PMC11417369:
# This is one part of the list.
# System: PfAP2-HC AP2 domain (GST-tagged)
# Assay: gcPBM binding intensity (ln(normalized median fluorescence intensity)); higher = stronger DNA binding
# Outline: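 Binding of GST-tagged P. falciparum DNA-binding domains, expressed in E. coli and used at about 25 μg on average, was carried out for 1 h in 1× PBS containing 1% milk, 0.2 mg/ml BSA, 0.5% salmon testes DNA and 0.03% Triton X-100. The target was an Agilent 4 × 180k array of primer-extended double-stranded 36-bp intergenic genomic probes plus negative controls, read with Alexa488 anti-GST antibody at 488 nm. Binding intensity is the highest Masliner-normalised natural-log median intensity across replicate spots of either probe orientation.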
row,Sequence,gcPBM binding intensity (ln)
1,TATATATATATATCCACACACATACATATATTAATA [CACACA_site69],10.3
2,TTGGTAATTTTAAAATGTACTTATTATATATATATA [XGTACX_site5642],9.52
3,TATACACTTGTAATAACACACATTATTTTTTTTTTT [CACACA_site1324],9.86
4,ATAAAAAATTTAAGTATTTTTTACAAACCTATAAAT [GTGCAC_negctrl_site51],9.38
5,AATTAACCGAAACACACACACATATATATATATATA [CACACA_site3963],10.5
6,TTTTGTTGTTGTTGTTGTACATAAATAATAAAATAT [XGTACX_site8681],9.63
7,ATATATTTTTTTTAGCGTACATGCAAAAAAAAAAAA [XGTACX_site4590],9.36
8,TCATAAATTAAACACACACACACATCTGGATACCCC [CACACA_site9096],10.9
9,TATACACACAGACATGCATGCACATATATATATACA [TGCATGCA_site30],10
10,AAATTAAAAGAAAATACACACCTGTGGGTGCTTATA [CACACA_site5143],9.61
11,ATTTTTTTTTGTTTAATGTTATGTGGTCATTAAATT [CACACA_negctrl_site1177],9.74
12,TATTTATTCACTTATTGTACTTATATATATAATAAA [XGTACX_site6147],9.69
13,TTTTTTTTATTTTAATGTACATTTTTTATTTGTTAT [XGTACX_site7189],9.89
14,TGATACTTTTTTTGTAGTACTCCTAAAATTATAAAA [XGTACX_site4340],9.28
15,TAATAAAATATGTACGTGCACATAATTATACTAAAA,9.79
16,ATATATATATTATTTCGTACATAATTATTTGCCTTA [XGTACX_site350],9.67
17,AAAAAAAAAAAAAATTGTACAAAAAAAATAAATAAA [XGTACX_site6816],9.76
18,AAAAAAAAAAAAGAAACACACATATTTATATTTATA [CACACA_site6213],9.74
19,TTATTTTAATAACCTACACACATTTTGTATATTTTA [CACACA_site4000],9.89
20,AAATGATGGAAAAAATAAATTTTTGTACAAAAATTA [CACACA_negctrl_site814],9.49
21,TTATAAATATTCTTGGGTACTTAAGATGATATGTAA [XGTACX_site5496],9.41
22,AAAAAAAAAAAGAAAGCACACAATACATATGTATAA [CACACA_site1137],9.86

row,Sequence,gcPBM binding intensity (ln)
1,ATATATATCAGACACACACACATGTTTTAAAACTAT [CACACA_site77],10.3
2,TAAATTTTTAAATACACACATACACCCATACAGACA [CACACA_site548],10.4
3,TTTTTTTTGTGGTGTCGTACATATGTTTGTTTTAAG [XGTACX_site1759],9.98
4,ATTATGCTACAAGGAGAACACACAATTGCCACTTTT [CACACA_site8673],9.9
5,ACATATATATATATATATATATATATATAATATTTA [CACACA_negctrl_site633],9.52
6,CCACGAGAATATATAGTGCATAATAATTTTTTTTTG,9.48
7,GGTGATAATAAGCATACACACACACCCAAAAAAAAA [CACACA_site8137],10.2
8,ACACATACACATTAGGTGCATATATTTCAATATTAC [GTGCAC_site9423],9.84
9,TTTAAAAAGATATATACACACATATAAATAAATATA [CACACA_site6436],9.81
10,CCACGTATAATATGTACACACACATATATACAAAAA [CACACA_site8208],10.2
11,AGCCTCGGGGTCATATATATATATATATATATATAT [CACACA_negctrl_site512],9.72
12,ATTATATTTTTAAGTACACACATATATATATATATA [CACACA_site5925],9.76
13,AATTATTTACCCTATACACACAAAACAGACTAAAAA [CACACA_site6688],10.2
14,ATAAAAATCATGTTGGTGCGAAATTTTATTATCAGA [GTGCAC_site9735],9.62
15,ATATTAATTCGTTTTGTACACACATAATGAATAATT [CACACA_site8701],10
16,TTATGTATAAACACACGTACACACACTAAGTATATC [XGTACX_site3254],10.1
17,AAGGTATGATTAATCACACACATAAATATATATACA [CACACA_site2658],10.1
18,TATATATATATATATATAATACGAATTTGTAGTACA [TGCATGCA_negctrl_site224],9.62
19,ATGTTTTTAAAAAATTGTACATAATATTTTTTATAA [XGTACX_site7692],9.46
20,ATAAAAGGAAGAAAATGTACATATAATTATATGCAT [XGTACX_site8421],9.83
21,TTTTTCTATAAAAAAAAAAAAAAAAAATATATATAT [TGCATGCA_negctrl_site535],9.33
22,TTGTATATTTTATGTACACACAATAAGTTAATATAA [CACACA_site4655],9.63

row,Sequence,gcPBM binding intensity (ln)
1,AAAATAATGTATATATGTACATATAAATATATATAT [XGTACX_site8081],9.89
2,TATTATTGCATATTTACACACGTACTAATTTAAACA [CACACA_site970],9.91
3,TTTTACAAATATAATGGGTGAGCTATCAAAATAAAT [GTGCAC_negctrl_site91],9.49
4,TGTATACTATTAAATTGTACACATAAGAAATATTAT [XGTACX_site5839],9.61
5,AAAAAAATACCATTCACACATATTCTTTTATTATTT [CACACA_site5113],9.75
6,AAAAAAAAAAAGTTTACACACATTAATTTTACATAT [CACACA_site834],9.9
7,TTTCATAACAAAAAAGTGCAAAATAGCACGAACATT [GTGCAC_site9703],9.76
8,AGAAAAAGGAGAAAAAGTACAAAACGGAGTAGTATT [XGTACX_site3858],9.82
9,AAAAATTATATACATCATAGAATTAACATTTTAAAT [GTGCAC_negctrl_site369],9.61
10,TAATAATACCCTTGCTGTACCAAATAAAGTTGAATA [XGTACX_site6922],9.52
11,AAATCAACGATCTATACATGCATATAATATATACAT [TGCATGCA_site25],9.61
12,GTAGCAATAAACATATGTACATATATATATTTTTTC [XGTACX_site5814],9.8
13,ACAAACAAAGAAAGAACACACATACACAATATACCT [CACACA_site5566],10.3
14,ATATTTAAATAATATTCACACACAAAATTATATTTT [CACACA_site7955],10
15,CATATAAAAATATATGCACACAAATAAAAAATTATA [CACACA_site9210],9.81
16,ATTTCTCAATCGTAATGTACAAAAAAAAGGGAAAAG [XGTACX_site2781],9.63
17,TATGAGGAAACGTGGTGTACTTTTTTTTAATAAAAA [XGTACX_site1351],9.34
18,ATAAATATAATAATCATACACACCAAAGAGAATATT [CACACA_site1888],10
19,AAAGTTATTATGCAATAATTATGATAATTAATATAT [TGCATGCA_negctrl_site316],9.61
20,ATGACTTACATATATAGTACTTTGTTTTGGAGTTGC [XGTACX_site94],9.57
21,ACTCTTGATCTGAATGCACACAATAAATTATATAAA [CACACA_site1438],9.69
22,ATATATTATATATATTGTACATGTAAAATTTTAAAA [XGTACX_site7197],9.74

row,Sequence,gcPBM binding intensity (ln)
1,AAAAATTTGGCATACACACACACACCCACACCCACA [CACACA_site587],10.4
2,TATGTATTTAAATTAACACACATATGTGGTTAATAG [CACACA_site5697],9.58
3,ACATATATATATATATATATATATATATCATTATGT [CACACA_negctrl_site724],9.54
4,TACTGCCTTCCATACCCACACACTTCCCATATATTT [CACACA_site2705],10.1
5,AAAACGCTACATAATTGTACATGTAGAAATAAAAGC [XGTACX_site2895],10
6,TCTAAAAATAAGAACACACACATATAAGCATATAAA [CACACA_site2274],10.2
7,ATTTAAAAAAAAAAAACACACATGTGAATAGAAAAG [CACACA_site3323],10.1
8,AGTATAATAATATTTACACACGCATATGTTATATAT [CACACA_site1476],9.84
9,CATACAAATTAATATGTACACACAAATATATATATA [CACACA_site8605],9.92
10,AGTAGTCTGGAGAAAAGTACATAGTATCTGGTAACC [XGTACX_site2024],9.74
11,TTTTACAATAATAAGTAGATCTAAATAAAGATTTAA [GTGCAC_negctrl_site547],9.45
12,TTTTTTTTTTTTTTTTGTACATATTTTAATTTGTTT [XGTACX_site6297],9.11
13,TTTATATTATTTAATGAGAAATAATTATAAACAATT [TGCATGCA_negctrl_site65],9.4
14,TTCCAAAATTGCACATGTACAAAATTCTCCAATATG [XGTACX_site3419],9.54
15,AAAAAAAAAAAATAATGTACATATGTATTTGAGAAA [XGTACX_site3572],9.66
16,TATGTATATATATATATATATATATATATATATATA [TGCATGCA_negctrl_site491],9.62
17,ATGGCCACTGTGAAATGTACAAAAAAAAAATACAAT [XGTACX_site2874],9.64
18,TATGTGCACCCATGTACATGCGGACATATGTTATAT [TGCATGCA_site383],9.83
19,TTGCCCATTTAATTAACACACAAATATTTATATTCT [CACACA_site738],10
20,GTTAAATAATATATATGTACATACATAAGTGTTACT [XGTACX_site4778],9.76
21,ATTTCCTTTTGTTTCAGTACATAATTTTTTTTTTTT [XGTACX_site4842],10
22,GATATTCATAGAAACACACATACAAATTATGTATAT [CACACA_site144],9.77
